# Assay results as given in PMC6919601, “Identification of Plasmodium dipeptidyl aminopeptidase allosteric inhibitors by high throughput screening” (PLoS ONE, 2019).
# The whole screen tested about 110,000 compounds, of which about 230 (0.21%) showed an effect of 50% or more. Some of the results follow.
# Molecular target: DPAP1 (Plasmodium falciparum, UniProt Q8IIJ9)
# Assay: primary screen, percent inhibition; read by cleavage of a fluorogenic dipeptide substrate; higher = more effect of the substance
# Parameters: species or system P. falciparum D10 trophozoite lysates; single well
# 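Further: 30 min substrate incubation versus DMSO and 10 µM JCP410 controls.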
# Sequence of DPAP1 (Q8IIJ9 whole entry, looked up): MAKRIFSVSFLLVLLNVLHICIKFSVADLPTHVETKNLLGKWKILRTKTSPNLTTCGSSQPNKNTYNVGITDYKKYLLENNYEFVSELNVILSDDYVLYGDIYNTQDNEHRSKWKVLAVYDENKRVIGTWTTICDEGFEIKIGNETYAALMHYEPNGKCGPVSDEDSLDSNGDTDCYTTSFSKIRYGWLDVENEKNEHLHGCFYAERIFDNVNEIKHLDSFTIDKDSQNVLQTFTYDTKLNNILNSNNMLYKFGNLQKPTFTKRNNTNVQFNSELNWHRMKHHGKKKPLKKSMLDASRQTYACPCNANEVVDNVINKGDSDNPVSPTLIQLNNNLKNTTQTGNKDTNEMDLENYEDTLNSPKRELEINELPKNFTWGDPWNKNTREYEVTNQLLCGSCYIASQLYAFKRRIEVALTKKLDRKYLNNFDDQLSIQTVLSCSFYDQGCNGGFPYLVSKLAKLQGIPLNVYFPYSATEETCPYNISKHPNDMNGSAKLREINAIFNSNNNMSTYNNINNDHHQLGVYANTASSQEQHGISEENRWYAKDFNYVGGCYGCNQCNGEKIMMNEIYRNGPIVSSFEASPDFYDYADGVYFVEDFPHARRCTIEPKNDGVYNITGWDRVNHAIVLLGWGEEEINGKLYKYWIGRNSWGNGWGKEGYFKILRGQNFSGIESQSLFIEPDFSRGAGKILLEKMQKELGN
row,Structure (SMILES),% Inhibition @ 10 uM [%]
1,CC1=C(C(=O)Nc2ccccc2C)C(c2ccc(F)cc2)C2=C(O)CCCC2=N1 (stereo not drawn),-4.72
2,Cc1ccc(C(O)c2ccncc2)cc1 (stereo not drawn),2.01
3,Cc1cc(C)n(-c2cc(N(C)C)nc(C)n2)n1,12.6
4,Cc1cc2nc(C)n(Cc3ccc(F)cc3)c2cc1C,5.39
5,CSC1=NSC2=NC(=O)/C(=C\c3coc4ccccc4c3=O)C(=N)N12,1.15
6,O=C(O)/C=C\C(=O)Nc1cccc(Cl)c1,-5.41
7,Cc1ccccc1Nc1nc2c(s1)CCCC2,21.4
8,COc1cc2c(cc1OC)C(C(=O)Nc1nc3ccccc3s1)C(c1cccs1)N(C)C2=O (stereo not drawn),7.57
9,O=C(NCCc1c[nH]c2ccccc12)c1cc2c(s1)CS(=O)(=O)C2,-2.34
10,Cc1c(C#N)c(=O)ncn1Cc1ccccc1,0.98
11,NC(=O)c1cc(S(=O)(=O)N2CCC(Cc3ccccc3)CC2)cs1,-2.85
12,CC(=O)Nc1ccc(NC(=O)c2ccc(C)c([N+](=O)[O-])c2)cc1,-2.47
13,CS/C(S)=C(/c1nc2ccccc2[nH]1)[n+]1ccccc1,8.5
14,COc1ccc(-c2cc3c(nn2)-c2ccccc2C3=O)cc1,1.24
15,COCCCNC(=O)c1ccc(CSCc2ccc(C)cc2)o1,0.514
16,COC(=O)C1=CN(CCc2ccc(OC)cc2)C=C(C(=O)OC)C1c1ccsc1,-5.26
17,CCCSCCCNC(=O)CN(C)c1nnc(N2CCCC2=O)s1,-1.49
18,Cc1cccc(NC(=O)C2CC3CCC2C3)n1 (stereo not drawn),-2.66
19,CCNC(=O)CCn1nc(-c2ccc(C)cc2)c2ccccc2c1=O,-2.98
20,Cc1ccc(-c2noc(CN(C(=O)Cc3ccc(Cl)cc3)C(C)C)n2)cc1,-3.99
21,CCOc1ccccc1NC(=O)c1ccc(C)c(C)c1,-6.67
22,CC(=O)N1CCN(C2CCN(CCc3ccccc3)CC2)CC1,-1.81

row,Structure (SMILES),% Inhibition @ 10 uM [%]
1,Cc1nn(CC(=O)NCCCN2CCC(Cc3ccccc3)CC2)c(=O)c2cc3sccc3n12,6.46
2,Cc1cc(C)c(C)c(S(=O)(=O)NCC(=O)NCCc2ccccc2)c1C,4.42
3,O=c1cc(-c2ccccc2)oc2cc(OCc3ccccc3)cc(O)c12,1.48
4,CCCCCn1c(=O)c(C(=O)Nc2ccc(OC)cc2)c(O)c2ccccc21,-3.74
5,Cc1ccc(CNC(=O)CN(c2ccccc2Cl)S(=O)(=O)c2ccccc2)cc1,-7.69
6,CCC1(C(O)(C#CCN2CCCCC2)c2ccccc2)CCCC1 (stereo not drawn),-2.15
7,O=C(ON1C(=O)c2ccccc2C1=O)C1CCCCC1,-2.45
8,CC(C)c1ccc(-c2c(NC(C)c3ccccc3)c(=O)c2=O)cc1 (stereo not drawn),4.62
9,CCOc1ccccc1-c1nc(-c2ccc3c(c2)OCO3)no1,1.76
10,O=CN1CCN(Cc2ccc(C(F)(F)F)cc2)CC1,-0.0908
11,Cc1ccccc1-c1cc(C(=O)O)c2c(-c3ccccc3)[nH]nc2n1,0.244
12,O=C(CN1C(=O)c2cccc3cccc1c23)Nc1ccccc1,-9.02
13,COc1ccc(C2=CC(c3cc(Br)ccc3F)n3ncnc3N2)cc1 (stereo not drawn),-5.19
14,COc1ccc(S(=O)(=O)Nc2c(C)cccc2C)cc1OC,2.4
15,CC(Oc1ccc(Cl)cc1Cl)C(=O)Nc1ncccn1 (stereo not drawn),-5.28
16,CC(C)C1C(=O)OC2c3ccccc3C(=O)N21 (stereo not drawn),4.01
17,CCCOC(=O)C(c1ccccc1)N1CCCCCC1 (stereo not drawn),1.57
18,N#CC1=C(N)Oc2nc(O)nc(O)c2C1c1cccc([N+](=O)[O-])c1 (stereo not drawn),-0.294
19,CCOC(=O)C1CN1CCC(=O)OC (stereo not drawn),-5.2
20,CC(CCN(CCO)Cc1ccccc1)c1ccccc1 (stereo not drawn),-2.03
21,Cc1ccccc1Cn1c(SCC(=O)NCc2cccs2)nc2c1c(=O)n(C)c(=O)n2C,4.57
22,COc1ccc(S(=O)(=O)NCCSC(C)(C)C)c(Cl)c1Cl,-5.5

row,Structure (SMILES),% Inhibition @ 10 uM [%]
1,COc1ccc(C2=NN(C(=O)CSc3ncnc4ccccc34)C(c3ccc(OC)cc3)C2)cc1 (stereo not drawn),3.32
2,COc1cc(/C=c2\sc3nc(=O)c(C)nn3c2=O)cc(OC)c1OC,-1.52
3,COc1ccc(N(CC(=O)N2CCCCC2)S(=O)(=O)c2ccccc2)cc1OC,-6.77
4,O=CNCC(=O)NCCc1ccc(Cl)cc1,-3.12
5,N#Cc1sc2nc(-c3cccs3)cc(C(F)(F)F)c2c1N,-2.32
6,COc1ccc(-c2oc(=O)n(Cc3cccs3)c2-c2ccc(OC)cc2)cc1,-6.65
7,Cn1c(=O)[nH]c(=O)c2c1nc(N1CCc3ccccc3C1)n2CCSc1ncccn1,0.758
8,COc1cc(-c2nc3ccccn3c2N)ccc1O,-4.3
9,COc1ccc(NC(=O)CNS(=O)(=O)c2ccc(Cl)cc2)cc1OC,-3.77
10,COc1ccccc1/C=C/C1=NC(=C\c2cccs2)/C(=O)O1,11.9
11,COc1ccccc1CNC1CCC(c2ccccc2)CC1 (stereo not drawn),0.265
12,O=C(OCC(O)CNC12CC3CC(CC(C3)C1)C2)C12CC3CC(CC(C3)C1)C2 (stereo not drawn),-12
13,CC(C)Cc1ccc(-c2csc(Nc3ccc(Oc4ccccc4)cc3)n2)cc1,-2.2
14,O=C1NC(=O)C(=Cc2ccc(SCc3ccc(Cl)cc3)o2)C(=O)N1,-1.7
15,COc1ccc(S(=O)(=O)N2CCC(c3nc(O)c4nnn(Cc5ccccc5F)c4n3)CC2)cc1,1.25
16,Cc1ccnc(N2CCN(C(=O)CSc3nc4ccccc4nc3N3CCC(C)CC3)CC2)c1,0.032
17,CCC(C(Nc1ccccc1)c1ccccc1)[N+](=O)[O-] (stereo not drawn),-4.01
18,CCOc1cccc(NC(=O)c2sc3nc(-c4ccc(OC)c(OC)c4)ccc3c2N)c1,0.161
19,Cc1cccc(NC(=O)c2cccc(Br)c2)n1,5.14
20,COc1ccccc1C1=Nc2c(c(=O)[nH]c(=O)n2Cc2ccccc2)C(C(F)(F)F)(C(F)(F)F)N1,4.94
21,Cc1nn(C)c(C)c1CN(C)S(=O)(=O)c1ccc(F)cc1,0.812
22,CC1=C(C(=O)Nc2ccccc2C)C(c2ccc(Cl)c(Cl)c2)n2nc(CCCO)nc2N1 (stereo not drawn),0.528
